In the supplement of paper PMC4967469:
Lines with a small IC50 respond at low doses; a limit (>, <) means that the fit lies beyond the doses tested. The AUC spans the tested range (256-fold, ending at the top dose) of the same fit; the more sensitive the line, the further below 1. For some of these results: An inferred top dose was calculated from the reported fits.

Tests used:
Test in all cases: Viability of human cancer cell lines after 72 h of drug (GDSC screen)
Vorinostat = compound: O=C(CCCCCCC(=O)Nc1ccccc1)NO [Vorinostat]; details: top dose 10 µM
Procedure: (§1)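 Human cancer cell lines in 384-well plates, medium with 10% serum, drug for 72 h over a 256-fold dose range (nine 2-fold or five 4-fold steps up to the top dose). Adherent lines were fixed and stained with the nucleic acid dye Syto60, suspension lines read with resazurin; signal relative to control wells, capped at 0 and 100%. One two-parameter sigmoid per drug and line, fitted in a mixed model over all curves with the slope shared within a line.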

SN-38 = compound: CCc1c2c(nc3ccc(O)cc13)-c1cc3c(c(=O)n1C2)COC(=O)[C@]3(O)CC [SN-38]; details: top dose 0.05 µM; top dose inferred
Procedure: as §1

Methotrexate = compound: CN(Cc1cnc2nc(N)nc(N)c2n1)c1ccc(C(=O)N[C@@H](CCC(=O)O)C(=O)O)cc1 [Methotrexate]; details: top dose 0.2 µM
Procedure: as §1

Axitinib = compound: CNC(=O)c1ccccc1Sc1ccc2c(/C=C/c3ccccn3)n[nH]c2c1 [Axitinib]; details: top dose 2 µM
Procedure: as §1

Dabrafenib = compound: CC(C)(C)c1nc(-c2cccc(NS(=O)(=O)c3c(F)cccc3F)c2F)c(-c2ccnc(N)n2)s1 [Dabrafenib]; details: top dose 10 µM
Procedure: as §1

## NCI-H209 (small cell lung carcinoma, suspension)
Vorinostat
  AUC: 0.448
  IC50: 0.446 µM
SN-38
  AUC: 0.26
  IC50: 0.000608 µM
Methotrexate
  AUC: 0.764
  IC50: 0.0774 µM
Axitinib
  AUC: 0.844
  IC50: 1.58 µM

## SK-N-DZ (neuroblastoma, adherent)
Vorinostat
  AUC: 0.574
  IC50: 0.994 µM
SN-38
  AUC: 0.541
  IC50: 0.00403 µM
Methotrexate
  AUC: 0.923
  IC50: > 0.2 µM
Axitinib
  AUC: 0.914
  IC50: > 2 µM

## 8-MG-BA (glioma, adherent)
Vorinostat
  AUC: 0.75
  IC50: 3.09 µM
SN-38
  AUC: 0.422
  IC50: 0.00194 µM
Methotrexate
  AUC: 0.985
  IC50: > 0.2 µM
Axitinib
  AUC: 0.928
  IC50: > 2 µM

## SK-MES-1 (lung squamous cell carcinoma, adherent)
Vorinostat
  AUC: 0.84
  IC50: 7.81 µM
SN-38
  AUC: 0.694
  IC50: 0.0116 µM
Methotrexate
  AUC: 0.969
  IC50: > 0.2 µM
Axitinib
  AUC: 0.984
  IC50: > 2 µM

## TOV-21G (ovary, adherent)
Vorinostat
  AUC: 0.593
  IC50: 1.15 µM
SN-38
  AUC: 0.574
  IC50: 0.00508 µM
Methotrexate
  AUC: 0.982
  IC50: > 0.2 µM
Axitinib
  AUC: 0.861
  IC50: 1.95 µM

## KYSE-220 (oesophagus, adherent)
Vorinostat
  AUC: 0.818
  IC50: 6.02 µM
SN-38
  AUC: 0.479
  IC50: 0.00273 µM
Methotrexate
  AUC: 0.932
  IC50: > 0.2 µM
Axitinib
  AUC: 0.944
  IC50: > 2 µM

## C3A (liver, adherent)
Vorinostat
  AUC: 0.866
  IC50: 9.58 µM
SN-38
  AUC: 0.532
  IC50: 0.00385 µM
Methotrexate
  AUC: 0.969
  IC50: > 0.2 µM
Axitinib
  AUC: 0.988
  IC50: > 2 µM

## TMK-1 (stomach, adherent)
Vorinostat
  AUC: 0.572
  IC50: 0.994 µM
Methotrexate
  AUC: 0.756
  IC50: 0.0722 µM
Axitinib
  AUC: 0.97
  IC50: > 2 µM
Dabrafenib
  AUC: 0.984
  IC50: > 10 µM

## GMS-10 (glioma, adherent)
Vorinostat
  AUC: 0.81
  IC50: 5.22 µM
SN-38
  AUC: 0.576
  IC50: 0.00503 µM
Methotrexate
  AUC: 0.988
  IC50: > 0.2 µM
Axitinib
  AUC: 0.973
  IC50: > 2 µM

## PFSK-1 (medulloblastoma, adherent)
Vorinostat
  AUC: 0.58
  IC50: 1.05 µM
SN-38
  AUC: 0.739
  IC50: 0.0158 µM
Methotrexate
  AUC: 0.893
  IC50: > 0.2 µM
Axitinib
  AUC: 0.874
  IC50: > 2 µM

## KMRC-1 (kidney, adherent)
Vorinostat
  AUC: 0.898
  IC50: > 10 µM
SN-38
  AUC: 0.691
  IC50: 0.0111 µM
Methotrexate
  AUC: 0.985
  IC50: > 0.2 µM
Axitinib
  AUC: 0.959
  IC50: > 2 µM

## SCH (stomach, adherent)
Vorinostat
  AUC: 0.746
  IC50: 3.38 µM
SN-38
  AUC: 0.935
  IC50: > 0.05 µM
Methotrexate
  AUC: 0.938
  IC50: > 0.2 µM
Axitinib
  AUC: 0.988
  IC50: > 2 µM

## SK-MEL-24 (melanoma, adherent)
Vorinostat
  AUC: 0.939
  IC50: > 10 µM
SN-38
  AUC: 0.51
  IC50: 0.00335 µM
Methotrexate
  AUC: 0.968
  IC50: > 0.2 µM
Axitinib
  AUC: 0.977
  IC50: > 2 µM

## JHU-011 (head and neck, adherent)
Vorinostat
  AUC: 0.501
  IC50: 0.631 µM
SN-38
  AUC: 0.527
  IC50: 0.0037 µM
Methotrexate
  AUC: 0.511
  IC50: 0.0134 µM
Axitinib
  AUC: 0.879
  IC50: 2 µM

## CAL-78 (chondrosarcoma, adherent)
Vorinostat
  AUC: 0.825
  IC50: 7.19 µM
Methotrexate
  AUC: 0.986
  IC50: > 0.2 µM
Axitinib
  AUC: 0.897
  IC50: > 2 µM
Dabrafenib
  AUC: 0.966
  IC50: > 10 µM

## WM793B (melanoma, adherent)
Vorinostat
  AUC: 0.877
  IC50: > 10 µM
SN-38
  AUC: 0.563
  IC50: 0.00475 µM
Methotrexate
  AUC: 0.98
  IC50: > 0.2 µM
Axitinib
  AUC: 0.978
  IC50: > 2 µM

## CHSA8926 (chondrosarcoma, adherent)
Vorinostat
  AUC: 0.875
  IC50: > 10 µM
SN-38
  AUC: 0.837
  IC50: > 0.05 µM
Methotrexate
  AUC: 0.98
  IC50: > 0.2 µM
Axitinib
  AUC: 0.895
  IC50: > 2 µM

## Hs746T (stomach, adherent)
Vorinostat
  AUC: 0.758
  IC50: 4.61 µM
Methotrexate
  AUC: 0.957
  IC50: > 0.2 µM
Axitinib
  AUC: 0.946
  IC50: > 2 µM
Dabrafenib
  AUC: 0.959
  IC50: > 10 µM

## HSC-4 (head and neck, adherent)
Vorinostat
  AUC: 0.558
  IC50: 0.945 µM
Methotrexate
  AUC: 0.962
  IC50: > 0.2 µM
Axitinib
  AUC: 0.829
  IC50: 1.85 µM
Dabrafenib
  AUC: 0.781
  IC50: 5.68 µM

## VMRC-RCW (kidney, adherent)
Vorinostat
  AUC: 0.85
  IC50: 6.78 µM
Methotrexate
  AUC: 0.962
  IC50: > 0.2 µM
Axitinib
  AUC: 0.957
  IC50: > 2 µM

## MHH-NB-11 (neuroblastoma, adherent)
Vorinostat
  AUC: 0.634
  IC50: 1.52 µM
Methotrexate
  AUC: 0.905
  IC50: > 0.2 µM
Axitinib
  AUC: 0.804
  IC50: 1.12 µM

## CL-34 (large intestine, adherent)
Vorinostat
  AUC: 0.776
  IC50: 4.43 µM
SN-38
  AUC: 0.708
  IC50: 0.0129 µM
Methotrexate
  AUC: 0.935
  IC50: > 0.2 µM
Axitinib
  AUC: 0.98
  IC50: > 2 µM

## BFTC-905 (bladder, adherent)
Vorinostat
  AUC: 0.765
  IC50: 3.19 µM
Methotrexate
  AUC: 0.985
  IC50: > 0.2 µM
Axitinib
  AUC: 0.941
  IC50: > 2 µM
Dabrafenib
  AUC: 0.81
  IC50: 4.4 µM

## MKN28 (stomach, adherent)
Vorinostat
  AUC: 0.699
  IC50: 2.29 µM
Methotrexate
  AUC: 0.923
  IC50: > 0.2 µM
Axitinib
  AUC: 0.969
  IC50: > 2 µM

## 201T (lung adenocarcinoma, adherent)
Vorinostat
  AUC: 0.728
  IC50: 3.34 µM
Methotrexate
  AUC: 0.909
  IC50: > 0.2 µM
Axitinib
  AUC: 0.96
  IC50: > 2 µM

## NH-12 (neuroblastoma, adherent)
Vorinostat
  AUC: 0.657
  IC50: 1.81 µM
SN-38
  AUC: 0.409
  IC50: 0.00171 µM
Methotrexate
  AUC: 0.95
  IC50: > 0.2 µM
Axitinib
  AUC: 0.869
  IC50: > 2 µM

## CHP-212 (neuroblastoma, adherent)
Vorinostat
  AUC: 0.289
  IC50: 0.168 µM
Methotrexate
  AUC: 0.987
  IC50: > 0.2 µM
Axitinib
  AUC: 0.768
  IC50: 0.693 µM
Dabrafenib
  AUC: 0.967
  IC50: > 10 µM

## HT55 (large intestine, adherent)
Vorinostat
  AUC: 0.667
  IC50: 1.82 µM
SN-38
  AUC: 0.975
  IC50: > 0.05 µM
Methotrexate
  AUC: 0.972
  IC50: > 0.2 µM
Axitinib
  AUC: 0.983
  IC50: > 2 µM

## GCIY (stomach, adherent)
Vorinostat
  AUC: 0.792
  IC50: 5.17 µM
Methotrexate
  AUC: 0.983
  IC50: > 0.2 µM
Axitinib
  AUC: 0.977
  IC50: > 2 µM

## CAL-62 (thyroid, adherent)
Vorinostat
  AUC: 0.778
  IC50: 3.85 µM
SN-38
  AUC: 0.211
  IC50: 0.000468 µM
Methotrexate
  AUC: 0.958
  IC50: > 0.2 µM
Axitinib
  AUC: 0.94
  IC50: > 2 µM

## NCI-H64 (small cell lung carcinoma, suspension)
Vorinostat
  AUC: 0.569
  IC50: 0.919 µM
Methotrexate
  AUC: 0.972
  IC50: > 0.2 µM
Axitinib
  AUC: 0.98
  IC50: > 2 µM

## ES-2 (ovary, adherent)
Vorinostat
  AUC: 0.684
  IC50: 1.9 µM
SN-38
  AUC: 0.64
  IC50: 0.0072 µM
Methotrexate
  AUC: 0.914
  IC50: > 0.2 µM
Axitinib
  AUC: 0.931
  IC50: > 2 µM
